# Out of some 310,000 compounds screened, about 2,200 (0.71%) showed an effect of 50% or more. Effects have a minus sign here. Some of the results follow.
# Molecular target: human ether-à-go-go-related gene (hERG) potassium channel (human, UniProt Q12809)
# Assay: primary screen, population patch clamp on CHO cells stably expressing hERG
# Sequence of human ether-à-go-go-related gene (hERG) potassium channel (Q12809 whole entry, looked up): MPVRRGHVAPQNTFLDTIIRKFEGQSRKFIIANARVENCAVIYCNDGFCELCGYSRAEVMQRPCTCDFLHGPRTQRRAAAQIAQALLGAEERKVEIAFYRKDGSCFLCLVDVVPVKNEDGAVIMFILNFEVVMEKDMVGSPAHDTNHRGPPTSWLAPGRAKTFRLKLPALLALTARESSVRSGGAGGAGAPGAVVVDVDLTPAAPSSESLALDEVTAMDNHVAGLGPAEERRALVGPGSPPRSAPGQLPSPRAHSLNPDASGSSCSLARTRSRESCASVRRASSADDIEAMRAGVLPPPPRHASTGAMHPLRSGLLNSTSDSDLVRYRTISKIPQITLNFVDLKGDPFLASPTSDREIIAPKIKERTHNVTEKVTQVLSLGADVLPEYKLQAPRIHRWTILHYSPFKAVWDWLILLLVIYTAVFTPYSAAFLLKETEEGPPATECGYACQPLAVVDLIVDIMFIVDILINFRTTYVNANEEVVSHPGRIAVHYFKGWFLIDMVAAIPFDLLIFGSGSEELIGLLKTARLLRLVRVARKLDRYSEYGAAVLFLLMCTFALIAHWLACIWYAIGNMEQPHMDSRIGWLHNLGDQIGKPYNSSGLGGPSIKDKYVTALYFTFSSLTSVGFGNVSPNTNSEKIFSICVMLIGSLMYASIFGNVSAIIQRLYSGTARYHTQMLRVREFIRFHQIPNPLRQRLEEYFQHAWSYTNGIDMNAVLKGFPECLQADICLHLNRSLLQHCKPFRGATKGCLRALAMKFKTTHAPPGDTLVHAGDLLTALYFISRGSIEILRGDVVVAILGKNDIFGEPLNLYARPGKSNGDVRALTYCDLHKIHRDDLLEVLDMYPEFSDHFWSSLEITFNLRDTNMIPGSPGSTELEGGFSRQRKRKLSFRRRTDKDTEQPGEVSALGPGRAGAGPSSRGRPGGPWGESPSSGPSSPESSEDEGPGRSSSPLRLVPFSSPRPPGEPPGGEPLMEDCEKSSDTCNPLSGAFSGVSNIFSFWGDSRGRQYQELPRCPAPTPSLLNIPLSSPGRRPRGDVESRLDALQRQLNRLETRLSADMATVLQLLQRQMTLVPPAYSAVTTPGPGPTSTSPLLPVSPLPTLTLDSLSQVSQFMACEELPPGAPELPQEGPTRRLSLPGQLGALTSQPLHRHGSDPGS
row,SMILES,"hERG current change (%, negative = inhibition) at 1uM [%]"
1,O=C(N/N=C\c1cccc(F)c1)c1ccc(Cn2cc(Br)c([N+](=O)[O-])n2)o1,-2.41
2,COc1cccc(/C=N/NC(=O)C(C)n2nc(C)c([N+](=O)[O-])c2C)c1O (stereo not drawn),6.33
3,Cc1nn(Cc2ccccc2)c(C)c1NC(=O)c1cc(-c2ccc3c(c2)OCO3)on1,14
4,O=[N+]([O-])c1ccccc1S(=O)(=O)N1CCN(C2CCN(Cc3ccccc3)CC2)CC1,-18.2
5,CCN(CC(=O)Nc1ccc(OC)cc1)C(=O)Cc1coc2cc(C)c(C)cc12,-3.3
6,CC1(C)NC(=O)N(CCOCCOc2c(Cl)cc(Cl)cc2Cl)C1=O,1.41
7,CC(C)CC(=O)N1CCC(O)(CS(=O)(=O)Cc2ccc(Cl)cc2)CC1,-3.08
8,COC(=O)C1C2C=CC3(CN(CCc4ccccc4)C(=O)C13)O2 (stereo not drawn),12.7
9,Cc1cc(C)c(C(=O)COC(=O)c2ccc([N+](=O)[O-])o2)cc1C,15.8
10,COc1ccc(Cl)cc1-n1c(C)ccc1C,12.1
11,CC(C)(C)N(Cc1ccccc1)C(=O)c1ccc(Br)o1,10
12,O=C(O)[C@H]1CCCC[C@H]1C(=O)Nc1cc([N+](=O)[O-])ccc1F,11.5
13,Cc1ccc(NC(=O)CN(C)C(=O)Cc2ccc(Cl)c(Cl)c2)cc1,10.9
14,O=C(CN1C(=O)COc2ccccc21)NCCN1CCOCC1,7.77
15,COc1ccc(CN(CCC(c2ccco2)C(C)C)C(C)=O)cc1OC (stereo not drawn),11.5
16,CC(C)Oc1ccc(CNC(=S)Nc2ccccc2)cc1Cl,13.2
17,Cc1cc(=O)n(C)c2ccccc12,8.74
18,O=[N+]([O-])c1cc(S(=O)(=O)Nc2ccccc2)ccc1-n1nnc2ccccc21,5.08
19,O=C(CSc1nc(-c2ccco2)cc(C(F)(F)F)n1)NN1CCOCC1,12.6
20,C#CCCOC(=O)N1C2=NC(C(=O)OC)=C(C(=O)OC)[C@@H]3N(C)c4ccccc4[C@]23C[C@H]1CO,10.9
21,CCCCCCCCCCCCS[C@H]1CS(=O)(=O)C[C@@H]1O,5.76
22,CC(C)(C)c1ccccc1OCCOCCN1CCCCCC1.O=C(O)C(=O)O,-3.93

row,SMILES,"hERG current change (%, negative = inhibition) at 1uM [%]"
1,C=CCOC(=O)C1=C[C@@H](c2ccccc2)C[C@@H](OCc2ccc(CO)cc2)O1,8.92
2,Nc1cc(C(=O)OCC(=O)Nc2ccc(N3CCOCC3)cc2)ccc1Cl,5.77
3,Cc1ccc(CNC(=O)COC(=O)c2cncc(Br)c2)cc1,14.1
4,COc1ccc(/C=N/NC(=O)CCn2nc(C)cc2C)cc1,7.76
5,O=C(O)CSc1nc2c(c(=O)[nH]1)CCCC2,16
6,CCn1c(C)c(C)c2cc(C(=O)N3CCc4ccccc4C3)ccc21,7.51
7,COCCCNc1oc(-c2cccs2)nc1S(=O)(=O)c1ccc(C)cc1,2.02
8,O=C(Nc1ccc([N+](=O)[O-])cc1)c1cc(-c2ccccn2)nc2c(Cl)cccc12,13.5
9,O=C(COc1ccc2c(c1)oc(=O)c1ccccc12)N[C@@H](Cc1ccccc1)C(=O)O,12
10,O=C1CCCCC1Sc1ccc(Cl)cc1[N+](=O)[O-] (stereo not drawn),7.69
11,COc1ccc(/C(C)=N/OC/C(O)=C(\C#N)c2nc3ccccc3[nH]2)cc1,16.7
12,CC(C)(C)c1cc(C(=O)NNC(=O)Nc2ccccc2)n(Cc2ccccc2)n1,11
13,COc1cccc(NC(=O)CNC(=O)c2ccc(C)o2)c1,12
14,O=C(CCN1C(=O)/C(=C\C=C\c2ccccc2)SC1=S)Nc1cccc(C(=O)O)c1,11.5
15,O=C(Nc1cccc(F)c1)/C(=C\c1cccnc1)NC(=O)c1ccco1,-1.43
16,Cc1ccccc1NC(=O)CN(C)S(=O)(=O)c1cccs1,5.52
17,O=C(C1=C[C@H](c2ccc3c(c2)OCO3)C[C@H](OCCCCO)O1)N1CCN(Cc2ccccc2)CC1,-20.5
18,Cc1cc(C)c2nc(Cl)c(C3NC(=O)c4ccccc4N3)cc2c1 (stereo not drawn),6.67
19,CC(C)c1cccc(C(C)C)c1NC(=O)CCl,16.1
20,O=c1[nH]c(CSc2ncn[nH]2)nc2ccccc12,8.32
21,COc1ccc(NC(=O)c2cc(S(=O)(=O)NCC3COc4ccccc4O3)ccc2F)cc1 (stereo not drawn),7.86
22,CSc1ccc(C(=O)C2CCCN(C(=O)c3csc(C(C)=O)c3)C2)cc1 (stereo not drawn),6.91

row,SMILES,"hERG current change (%, negative = inhibition) at 1uM [%]"
1,O=C(Cn1ncn2cccc2c1=O)N1CCCCC1,11.8
2,O=C(c1cc([N+](=O)[O-])cc([N+](=O)[O-])c1)N1CCCc2ccccc21,7.51
3,O=C(NCc1cccc2ccccc12)Nc1ccccc1,4.1
4,C=CCc1cc(C)ccc1OCCOCCN1CCN(C)CC1.O=C(O)C(=O)O,11.3
5,CC(=O)NC(Cc1ccc(F)c(F)c1)C(=O)NC1CCN(C(=O)c2ccc(C)cc2)CC1 (stereo not drawn),-4.57
6,COc1cc(-c2nnc(COC(=O)C3c4ccccc4Oc4ccccc43)o2)cc(OC)c1OC,6.01
7,Cc1ccc(C(c2c(C)[nH][nH]c2=O)c2c(C)[nH][nH]c2=O)cc1[N+](=O)[O-],-0.931
8,O=C(CSc1ncnc2sc3c(c12)CCC3)Nc1ccccc1C(=O)O,6.04
9,CCOC(=O)C1CCCN(C(=O)Nc2c(-c3ccccc3)noc2C)C1 (stereo not drawn),10.7
10,Cc1ccc2c(c1)c(C)c(C)n2CC(O)Cn1nc(C)cc1C (stereo not drawn),6.09
11,Cc1c(Cl)cccc1NC(=O)CC1Sc2ccccc2NC1=O (stereo not drawn),17.2
12,CCOC(=O)c1oc2ccccc2c1CN1CCCCC1.Cl,-9.66
13,Cc1ccc(NC(=O)COc2cccc(-n3cnnn3)c2)cc1[N+](=O)[O-],9.32
14,CC1(C)OC(=O)C(=C2CCCN2)C(=O)O1,20.2
15,Cc1ccc(C2CCN(C(=S)Nc3cccc(Cl)c3)C2)cc1 (stereo not drawn),12.2
16,CC(C)(C)Cc1nnc(NS(=O)(=O)c2ccc(F)cc2)s1,0.152
17,CCCNC(=O)CCc1c(C)nc2c(c(C)nn2-c2ccccc2)c1C,9.19
18,OCCC1CN(Cc2ccc3c(c2)CCO3)CCN1Cc1ccc(F)cc1 (stereo not drawn),-31.8
19,CC1(C)CC(=O)C=C(N=CC2=C(O)CC(C)(C)CC2=O)C1,7.45
20,CC(=O)Nc1cc(C(=O)c2ccccc2)ccc1N1CCOCC1,-18.4
21,Cc1ccnc(NS(=O)(=O)c2ccc(NS(=O)(=O)c3ccc(Br)cc3)cc2)n1,16.1
22,O=C(CSc1nc(-c2ccccc2)c(-c2ccccc2)[nH]1)Nc1nccs1,-2.45

row,SMILES,"hERG current change (%, negative = inhibition) at 1uM [%]"
1,CCCn1c(SCC(=O)c2c(N)n(C3CC3)c(=O)[nH]c2=O)nc2cc(S(N)(=O)=O)ccc21,2.68
2,CC1CN(CCc2ccccc2)CC(C)O1 (stereo not drawn),15.6
3,COc1ccc(S(=O)(=O)N2CCC(C(=O)N[C@H](C(=O)NC3CCCC3)C(C)C)CC2)cc1,10.1
4,COC(=O)c1oc2ccccc2c1NC(=O)/C=C/C(=O)O,6.91
5,CCCC(=O)Nc1nnc(/C=C/c2ccc(OC)cc2)s1,19
6,O=C(Nc1ccccc1F)C(=O)c1cn(CC(=O)N2CCCCC2)c2ccccc12,9.28
7,NS(=O)(=O)c1ccc(CCNC(=O)CSc2ncnc3ccccc23)cc1,19.3
8,Cc1nn(-c2ccc(F)cc2)c(C)c1NS(=O)(=O)c1ccc(Cl)cc1,12.6
9,COc1cccc(-n2c(CN3CCN(c4cccc(C)c4)C(C)C3)nc3ccc([N+](=O)[O-])cc3c2=O)c1 (stereo not drawn),0.326
10,Cc1ccccc1-n1nnnc1SCC(C)C,12.1
11,N#Cc1nc(COc2ccc(-c3ccccc3)cc2)oc1NCc1cccnc1,-11.5
12,C=C(C)CSc1nc2sc3c(c2c(=O)n1C1CCCCC1)CCN(C)C3,4.06
13,CCOc1ccccc1Nc1nnc(SCc2nnc(-c3cc(OC)c(OC)c(OC)c3)o2)s1,14.8
14,COC(=O)CN(C(=S)Nc1ccc(F)cc1)C1CC(=O)N(c2ccccc2)C1=O (stereo not drawn),7.56
15,Cc1ccc(CSCC(=O)NN=C2CCN(C)CC2)cc1,5.81
16,Cc1cc(Sc2ncnc(N)c2[N+](=O)[O-])ncn1,13
17,CCCCN(C(=O)C1CCC1)c1c(N)n(Cc2ccccc2)c(=O)[nH]c1=O,-3.05
18,CCOC(=O)c1sc(NC(=O)CSc2nccc(C)n2)nc1C,3.98
19,CCOC(=O)NC(NCc1cccc(C(F)(F)F)c1)(C(F)(F)F)C(F)(F)F,3.93
20,C/C(=N\OC(=O)c1ccc(F)cc1)c1sc(-c2ccc(Cl)cc2)nc1C,9.67
21,CCCNC(=O)C(Cc1ccccc1)NS(=O)(=O)c1ccc2c(c1)CCC(=O)N2 (stereo not drawn),7.16

# Reference: PMC4336329 (PLoS ONE, 2015)
